{"source": "PubChem BioAssay AID1508642", "about": "(National Center for Advancing Translational Sciences (NCATS), 2021)", "note": "The whole screen tested about 43,000 compounds, of which about 200 (0.47%) were called active. Roughly 12% stayed inconclusive and do not appear here. Calls come from the whole dose curve; as a rule, active = well fitted cell-killing curve with a large enough effect; inconclusive = small, poorly fitted or top-dose-only effect, or effect the other way; inactive = flat fitted curve, though single readings scatter. This is one part of the list. % is set by controls: 0 for no effect and ±100 for the full control effect.", "data": [{"assay": "Cell viability qHTS assay in S16 Pmp22-F2sN cells; note: nearly all actives have a fitted effect of over 65% in size", "settings": "S16 Pmp22-F2sN Schwann cells (luciferase reporters placed in the Pmp22 gene) viability, CellTiter-Glo, 24 h; series mostly up to 57.5 µM; activity change, negative = cytotoxicity: at the top concentration", "summary_of_the_method": "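S16 Schwann cells carrying the Pmp22-F2sN reporter, seeded in 1536-well format, were exposed to library compounds for 24 h at 37C. Viability was read as CellTiter-Glo luminescence after 15 min at room temperature.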", "values": [{"smiles": "O=C(Cn1c(=O)oc2ccccc21)NCc1ccccc1Cl", "activity change, negative = cytotoxicity": "inactive: 9.29%"}, {"smiles": "O=C(CSc1nc2c(c(=O)[nH]1)CCCC2)Nc1cccc(O)c1", "activity change, negative = cytotoxicity": "inactive: -5.72%"}, {"smiles": "COc1cc2[nH]c(=O)n(CCCC(=O)NCc3ccccc3Cl)c(=O)c2cc1OC", "activity change, negative = cytotoxicity": "inactive: -2.35%"}, {"smiles": "COCCCNC(=O)C1CCN(c2nnc(-n3cccc3CNc3ccc(C)cc3)s2)CC1", "activity change, negative = cytotoxicity": "inactive: -1.63%"}, {"smiles": "Cc1cc(OCCn2c(C3CC(=O)N(Cc4ccc(F)cc4)C3)nc3ccccc32)ccc1Cl", "note": "(stereo unspecified)", "activity change, negative = cytotoxicity": "inactive: -2.23%"}, {"smiles": "COc1ccccc1CNC(=O)Cn1c(=O)oc2ccccc21", "activity change, negative = cytotoxicity": "inactive: 1.92%"}, {"smiles": "CCOc1ccc(CCNC(=O)c2ccc(Cn3c(=O)c4cccn4c4cccnc43)cc2)cc1", "activity change, negative = cytotoxicity": "inactive: 1.19%"}, {"smiles": "O=C(c1ccc2c(c1)N(Cc1ccccc1F)C(=O)c1ccccc1S2(=O)=O)N1CCCCCC1", "activity change, negative = cytotoxicity": "inactive: 16.6%"}, {"smiles": "CCCNC(=O)c1cc2n(n1)CCCN(Cc1ccc(F)cc1)C2=O", "activity change, negative = cytotoxicity": "inactive: -1.09%"}, {"smiles": "O=C(CSCc1nc2cccnc2n1C1CCCCC1)NCc1cccc(Br)c1", "activity change, negative = cytotoxicity": "inactive: -6.96%"}, {"smiles": "O=C(OCc1ccccc1)c1ccc(-c2nnn(Cc3ccccc3F)n2)cc1", "activity change, negative = cytotoxicity": "inactive: 6.2%"}, {"smiles": "Cc1ccc2scc(N3CCN(c4ccccc4)CC3)c(=O)c2c1", "activity change, negative = cytotoxicity": "inactive: 13.9%"}, {"smiles": "CCOc1ccc(CCNC(=O)c2ccc3[nH]c(C)c(C)c3c2)cc1", "activity change, negative = cytotoxicity": "inactive: -16.3%"}, {"smiles": "O=C(C1COc2ccccc2O1)N(Cc1cccnc1)c1nc2ccc(F)cc2s1", "note": "(stereo unspecified)", "activity change, negative = cytotoxicity": "inactive: 11%"}, {"smiles": "CCOC(=O)c1sc(N2C(=O)c3oc4ccc(F)cc4c(=O)c3C2c2cccc(OC)c2)nc1C", "note": "(stereo unspecified)", "activity change, negative = cytotoxicity": "inactive: 1.67%"}, {"smiles": "CCN(C(=O)Cn1c(SCc2ccccc2F)nc2cccnc21)c1ccccc1", "activity change, negative = cytotoxicity": "inactive: -1.74%"}, {"smiles": "Cc1ccc(C)c(NC(=O)C2CCCN(S(=O)(=O)c3cccc4nsnc34)C2)c1", "note": "(stereo unspecified)", "activity change, negative = cytotoxicity": "inactive: -11.1%"}, {"smiles": "CCCCC(=O)NC1(C(F)(F)F)C(=O)Nc2c1c(=O)[nH]c(=O)n2-c1ccc(F)cc1", "note": "(stereo unspecified)", "activity change, negative = cytotoxicity": "inactive: 0.271%"}, {"smiles": "COc1cc(Cl)c(NS(=O)(=O)c2ccc3[nH]c(=O)ccc3c2)c(OC)c1", "activity change, negative = cytotoxicity": "inactive: 3.11%"}, {"smiles": "CCC1CCCCN1C(=O)Cn1c(=O)n(-c2ccccc2C(F)(F)F)c(=O)c2c(C)c(C(=O)N(C)C)sc21", "note": "(stereo unspecified)", "activity change, negative = cytotoxicity": "inactive: 2.15%"}, {"smiles": "COc1ccccc1N1CCN(C(c2ccccc2)c2nnc(-c3ccccc3Cl)o2)CC1", "note": "(stereo unspecified)", "activity change, negative = cytotoxicity": "inactive: -5.38%"}, {"smiles": "Cc1ccc(NC(=O)Cn2c(=O)n(Cc3nc(-c4ccccc4)no3)c(=O)c3cc4c(cc32)OCO4)cc1C", "activity change, negative = cytotoxicity": "inactive: -6.86%"}, {"smiles": "CCOc1ccc(OCC)c(NC(=O)CN(c2ccc(C)cc2)S(=O)(=O)c2c(C)n[nH]c2C)c1", "activity change, negative = cytotoxicity": "inactive: 9.54%"}, {"smiles": "CCOc1ccc(NC(=O)C(CC)n2nc(-c3ccc(C)c(C)c3)ccc2=O)cc1", "note": "(stereo unspecified)", "activity change, negative = cytotoxicity": "inactive: 0.585%"}, {"smiles": "COc1ccc(C2CC(=O)c3c([nH]c(C(=O)OC4CCCC4)c3C)C2)cc1OC", "note": "(stereo unspecified)", "activity change, negative = cytotoxicity": "inactive: 3.94%"}, {"smiles": "O=C(CN1C(=O)COc2ccc(S(=O)(=O)Nc3ccccc3)cc21)NCc1ccccc1Cl", "activity change, negative = cytotoxicity": "inactive: 3.86%"}, {"smiles": "CCOC(=O)c1c(S(=O)(=O)N2CCC(C(=O)Nc3cccc(C#N)c3)CC2)c(C)n(C)c1C", "activity change, negative = cytotoxicity": "inactive: -3.29%"}, {"smiles": "CCN(CC)S(=O)(=O)c1ccc(C(=O)NC2CC(=O)N(c3ccc4c(c3)OCCO4)C2)cc1", "note": "(stereo unspecified)", "activity change, negative = cytotoxicity": "inactive: 14.4%"}, {"smiles": "COc1ccc(CCNc2nc(SCc3ccccc3Cl)nc3ccccc23)cc1OC", "activity change, negative = cytotoxicity": "inactive: 0.535%"}, {"smiles": "COc1ccc(NC(=O)Cn2c(=O)n(CCc3ccccc3)c(=O)c3sc4ccccc4c32)cc1", "activity change, negative = cytotoxicity": "inactive: 2.49%"}, {"smiles": "O=S1(=O)c2ccccc2N(Cc2ccccc2Cl)c2ccccc21", "activity change, negative = cytotoxicity": "inactive: -0.866%"}, {"smiles": "COc1cccc(NC(=O)C(=O)NCCc2sc(-c3cccc(C)c3)nc2C)c1", "activity change, negative = cytotoxicity": "inactive: -3.9%"}, {"smiles": "CCC1CN(C(=O)NCc2cccc(OC)c2)c2ccccc2O1", "note": "(stereo unspecified)", "activity change, negative = cytotoxicity": "inactive: 1.34%"}, {"smiles": "COc1ccc(-c2[nH]c(-c3ccccc3)nc2SCC(=O)NC2CCCC2)cc1", "activity change, negative = cytotoxicity": "inactive: -1.94%"}, {"smiles": "COc1ccc(CCNC(=O)c2cc3c(=O)n(C)c4cc(Cl)ccc4c3s2)cc1OC", "activity change, negative = cytotoxicity": "inactive: 16.7%"}, {"smiles": "Cc1ccc(-c2ccc(=O)n(CC(=O)NC(C)c3ccccc3)n2)cc1", "note": "(stereo unspecified)", "activity change, negative = cytotoxicity": "inactive: -3.4%"}, {"smiles": "COc1ccc(CNC(=O)C2(c3cccs3)CCOCC2)cc1", "activity change, negative = cytotoxicity": "inactive: 15%"}, {"smiles": "CCN(CC)c1ccc(C2C(C(N)=O)=C(C)Nc3nc(SCc4ccccc4Cl)nn32)cc1", "note": "(stereo unspecified)", "activity change, negative = cytotoxicity": "inactive: 25.3%"}, {"smiles": "CCOC(=O)c1ccc(N=C2SC(C(=O)Nc3ccccc3)CC(=O)N2C)cc1", "note": "(stereo unspecified)", "activity change, negative = cytotoxicity": "inactive: 7.96%"}, {"smiles": "Cc1ccc(NC(=O)c2ccc(C)c(S(=O)(=O)N3CCCCCC3)c2)cc1", "activity change, negative = cytotoxicity": "inactive: -0.368%"}, {"smiles": "CCOc1ccc(NC(=O)c2c(NCc3cccs3)sc3c2CCC(C)C3)cc1", "note": "(stereo unspecified)", "activity change, negative = cytotoxicity": "inactive: 1.46%"}, {"smiles": "COc1ccc(N2CCN(CC(O)COc3c(OC)cccc3OC)CC2)cc1", "note": "(stereo unspecified)", "activity change, negative = cytotoxicity": "inactive: 0.448%"}, {"smiles": "CCN(CC)S(=O)(=O)c1cccc(C(=O)Nc2ccccc2C(=O)Nc2ccc(OC)cc2)c1", "activity change, negative = cytotoxicity": "inactive: 13.9%"}, {"smiles": "CCCCc1nn2c(=O)cc(COC(=O)CNC(=O)COc3ccc(C)cc3)nc2s1", "activity change, negative = cytotoxicity": "inactive: -5%"}, {"smiles": "Cc1ccc2oc(-c3ccc(NC(=O)c4oc5ccc(Cl)cc5c4C)cc3)nc2c1", "activity change, negative = cytotoxicity": "inactive: 12.1%"}, {"smiles": "Cc1ccc(-n2nc(C)c3c(C(F)(F)F)cc(-c4cccnc4)nc32)cc1C", "activity change, negative = cytotoxicity": "inactive: -2.32%"}, {"smiles": "CCCCN(C)CCCNC(=O)c1cn(CC)c2ccc(S(=O)(=O)N3CCc4ccccc4C3)cc2c1=O", "activity change, negative = cytotoxicity": "inactive: -26.9%"}, {"smiles": "COc1ccc(NC(=O)Nc2cc(C(=O)NCc3ccc(C)cc3)ccc2N2CCCC2)cc1", "activity change, negative = cytotoxicity": "inactive: -1.91%"}, {"smiles": "COc1ccccc1CNC(=O)c1cc(S(=O)(=O)N2CCCC(C)C2)cn1C", "note": "(stereo unspecified)", "activity change, negative = cytotoxicity": "inactive: 4.08%"}, {"smiles": "Cc1cccc(NC(=O)Cn2c(SCC(=O)NCc3ccccc3)nc3ccccc32)c1C", "activity change, negative = cytotoxicity": "inactive: -3.7%"}, {"smiles": "O=C(c1cnn(-c2ccc(F)cc2)c1-n1cccc1)N1CCN(c2ccccc2)CC1", "activity change, negative = cytotoxicity": "inactive: 14.2%"}, {"smiles": "COc1ccc(OC)c(CNC(=O)NCc2noc3ccc(C)cc23)c1", "activity change, negative = cytotoxicity": "inactive: 0.13%"}, {"smiles": "Cc1ccc(-n2nc(C)c3c(C(=O)NCCc4ccc(S(N)(=O)=O)cc4)cc(C)nc32)cc1", "activity change, negative = cytotoxicity": "inactive: -1.75%"}, {"smiles": "O=C(CN1C(=O)c2cccnc2Sc2ccccc21)Nc1cc(F)ccc1F", "activity change, negative = cytotoxicity": "inactive: 6.61%"}, {"smiles": "CCC1CN(C(=O)N2CCC(C(=O)NCc3cccc(F)c3)CC2)c2cc(C)ccc2O1", "note": "(stereo unspecified)", "activity change, negative = cytotoxicity": "inactive: -7.45%"}, {"smiles": "CCN1C(=O)c2ccccc2S(=O)(=O)c2ccc(C(=O)NCc3ccccc3OC)cc21", "activity change, negative = cytotoxicity": "inactive: 11.7%"}, {"smiles": "CC(C)c1ccc(NC(=O)c2cc3c(=O)[nH]c4ccccc4c3n2C)cc1", "activity change, negative = cytotoxicity": "inactive: 5.25%"}, {"smiles": "O=C(CSc1cn(CC(=O)N2CCCCC2)c2ccccc12)NCc1ccccc1Cl", "activity change, negative = cytotoxicity": "inactive: 1.13%"}, {"smiles": "CCC(O)c1nc2ccccc2n1Cc1cc(C)ccc1C", "note": "(stereo unspecified)", "activity change, negative = cytotoxicity": "inactive: 6.6%"}, {"smiles": "COc1ccccc1NS(=O)(=O)c1cn(C)c(C)n1", "activity change, negative = cytotoxicity": "inactive: 0.786%"}, {"smiles": "COc1ccc(N2CC(NC(=O)COc3cccc(C)c3)CC2=O)cc1OC", "note": "(stereo unspecified)", "activity change, negative = cytotoxicity": "inactive: -5.24%"}]}]}
